For assay [1], the target named is SMAD4 (endogenous) (human (endogenous in Panc-1, Jurkat, MIA-PaCa-2, Capan-2)) (UniProt Q13485). Briefly: co-IP; endogenous proteins; SMAD4 immunoprecipitated, IgG as negative control; Panc-1, Jurkat, MIA-PaCa-2 and Capan-2 cells.
The target of assay [2] is T1, GST-SMAD4 (full-length, WT) (human), Q13485.
T1 chain: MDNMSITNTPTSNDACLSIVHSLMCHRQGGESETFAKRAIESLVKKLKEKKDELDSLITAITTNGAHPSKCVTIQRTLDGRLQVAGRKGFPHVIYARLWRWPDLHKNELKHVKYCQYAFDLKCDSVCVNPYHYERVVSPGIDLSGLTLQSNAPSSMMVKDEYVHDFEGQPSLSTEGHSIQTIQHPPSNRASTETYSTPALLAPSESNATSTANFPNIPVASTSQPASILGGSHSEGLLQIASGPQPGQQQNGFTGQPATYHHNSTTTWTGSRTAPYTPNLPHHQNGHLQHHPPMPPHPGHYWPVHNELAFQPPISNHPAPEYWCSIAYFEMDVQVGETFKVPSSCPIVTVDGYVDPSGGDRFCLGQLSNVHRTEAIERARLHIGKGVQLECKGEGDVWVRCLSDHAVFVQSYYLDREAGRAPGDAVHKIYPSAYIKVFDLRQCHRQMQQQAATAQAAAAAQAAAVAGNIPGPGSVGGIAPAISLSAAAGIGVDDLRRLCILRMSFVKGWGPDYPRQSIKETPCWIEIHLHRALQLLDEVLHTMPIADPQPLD
Kind of assay: pull-down; GST-pulldown from lysates of HEK293T cells co-expressing a GST-tagged and a VF-tagged protein, then immunoblotting; in some panels cells treated with TGF-β (10 ng/ml, 4 h), SB431542 (10 μM, 1 h), ionomycin 10 μM + PMA 1 μM (4 h) or CsA (10 μM, 1 h). To be noted: remark: other sources report otherwise. For orientation: Immunoblotting shows a protein as a band on a membrane.

For assay [3], the target named is GST-SMAD4 (full-length, WT) (human) (UniProt Q13485). Described as above.
For assay [4], the target named is N-Venus-tagged SMAD4 (NV-SMAD4) (human) (UniProt Q13485). Briefly: split reporter; BiFC with N-Venus and C-Venus fusions in transfected Panc-1 cells; imaging and fluorescence of cell lysates.

These are yes or no findings as the source states them, for the method shown. Binding seen in cells or lysates may run through a third protein. Some results given as binding are weak or reduced against the parent protein; the word gives no strength. For some assays here: Sequences can lack the tags named with a protein.

B1: NFATc1 (endogenous) (protein, UniProt O95644 1-943)
chain: MPSTSFPVPSKFPLGPAAAVFGRGETLGPAPRAGGTMKSAEEEHYGYASSNVSPALPLPTAHSTLPAPCHNLQTSTPGIIPPADHPSGYGAALDGGPAGYFLSSGHTRPDGAPALESPRIEITSCLGLYHNNNQFFHDVEVEDVLPSSKRSPSTATLSLPSLEAYRDPSCLSPASSLSSRSCNSEASSYESNYSYPYASPQTSPWQSPCVSPKTTDPEEGFPRGLGACTLLGSPRHSPSTSPRASVTEESWLGARSSRPASPCNKRKYSLNGRQPPYSPHHSPTPSPHGSPRVSVTDDSWLGNTTQYTSSAIVAAINALTTDSSLDLGDGVPVKSRKTTLEQPPSVALKVEPVGEDLGSPPPPADFAPEDYSSFQHIRKGGFCDQYLAVPQHPYQWAKPKPLSPTSYMSPTLPALDWQLPSHSGPYELRIEVQPKSHHRAHYETEGSRGAVKASAGGHPIVQLHGYLENEPLMLQLFIGTADDRLLRPHAFYQVHRITGKTVSTTSHEAILSNTKVLEIPLLPENSMRAVIDCAGILKLRNSDIELRKGETDIGRKNTRVRLVFRVHVPQPSGRTLSLQVASNPIECSQRSAQELPLVEKQSTDSYPVVGGKKMVLSGHNFLQDSKVIFVEKAPDGHHVWEMEAKTDRDLCKPNSLVVEIPPFRNQRITSPVHVSFYVCNGKRKRSQYQRFTYLPANVPIIKTEPTDDYEPAPTCGPVSQGLSPLPRPYYSQQLAMPPDPSSCLVAGFPPCPQRSTLMPAAPGVSPKLHDLSPAAYTKGVASPGHCHLGLPQPAGEAPAVQDVPRPVATHPGSPGQPPPALLPQQVSAPPSSSCPPGLEHSLCPSSPSPPLPPATQEPTCLQPCSPACPPATGRPQHLPSTVRRDESPTAGPRLLPEVHEDGSPNLAPIPVTVKREPEELDQLYLDDVNEIIRNDLSSTSTHS
For B1, in assay [1], the binding result is given as “binds”.

B2: SMAD3 found with GST-SMAD4 in HEK293T cells treated with TGF-β or SB431542 (Figure 5A), P84022 1-425 (protein)
chain: MSSILPFTPPIVKRLLGWKKGEQNGQEEKWCEKAVKSLVKKLKKTGQLDELEKAITTQNVNTKCITIPRSLDGRLQVSHRKGLPHVIYCRLWRWPDLHSHHELRAMELCEFAFNMKKDEVCVNPYHYQRVETPVLPPVLVPRHTEIPAEFPPLDDYSHSIPENTNFPAGIEPQSNIPETPPPGYLSEDGETSDHQMNHSMDAGSPNLSPNPMSPAHNNLDLQPVTYCEPAFWCSISYYELNQRVGETFHASQPSMTVDGFTDPSNSERFCLGLLSNVNRNAAVELTRRHIGRGVRLYYIGGEVFAECLSDSAIFVQSPNCNQRYGWHPATVCKIPPGCNLKIFNNQEFAALLAQSVNQGFEAVYQLTRMCTIRMSFVKGWGAEYRRQTVTSTPCWIELHLNGPLQWLDKVLTQMGSPSIRCSSVS
In the case of B2, the binding result in assay [2] is listed as “binds”.

B3: VF-tagged NFATc1 T2, truncation of DBD and CD (426-716 amino acids) (domain or fragment, UniProt O95644-2 426-716)
chain: YELRIEVQPKSHHRAHYETEGSRGAVKASAGGHPIVQLHGYLENEPLMLQLFIGTADDRLLRPHAFYQVHRITGKTVSTTSHEAILSNTKVLEIPLLPENSMRAVIDCAGILKLRNSDIELRKGETDIGRKNTRVRLVFRVHVPQPSGRTLSLQVASNPIECSQRSAQELPLVEKQSTDSYPVVGGKKMVLSGHNFLQDSKVIFVEKAPDGHHVWEMEAKTDRDLCKPNSLVVEIPPFRNQRITSPVHVSFYVCNGKRKRSQYQRFTYLPANGNAIFLTVSREHERVGCFF
In the case of B3, the binding entry in assay [3] is on record as “binds”.

B4: VF-tagged NFATc1 R484A/L485A (protein, UniProt O95644-2 1-716)
chain: MPSTSFPVPSKFPLGPAAAVFGRGETLGPAPRAGGTMKSAEEEHYGYASSNVSPALPLPTAHSTLPAPCHNLQTSTPGIIPPADHPSGYGAALDGGPAGYFLSSGHTRPDGAPALESPRIEITSCLGLYHNNNQFFHDVEVEDVLPSSKRSPSTATLSLPSLEAYRDPSCLSPASSLSSRSCNSEASSYESNYSYPYASPQTSPWQSPCVSPKTTDPEEGFPRGLGACTLLGSPRHSPSTSPRASVTEESWLGARSSRPASPCNKRKYSLNGRQPPYSPHHSPTPSPHGSPRVSVTDDSWLGNTTQYTSSAIVAAINALTTDSSLDLGDGVPVKSRKTTLEQPPSVALKVEPVGEDLGSPPPPADFAPEDYSSFQHIRKGGFCDQYLAVPQHPYQWAKPKPLSPTSYMSPTLPALDWQLPSHSGPYELRIEVQPKSHHRAHYETEGSRGAVKASAGGHPIVQLHGYLENEPLMLQLFIGTADDAALRPHAFYQVHRITGKTVSTTSHEAILSNTKVLEIPLLPENSMRAVIDCAGILKLRNSDIELRKGETDIGRKNTRVRLVFRVHVPQPSGRTLSLQVASNPIECSQRSAQELPLVEKQSTDSYPVVGGKKMVLSGHNFLQDSKVIFVEKAPDGHHVWEMEAKTDRDLCKPNSLVVEIPPFRNQRITSPVHVSFYVCNGKRKRSQYQRFTYLPANGNAIFLTVSREHERVGCFF
In the case of B4, in assay [3], the binding entry was “binds”.

B5: VF-tagged NFATc1 T551A (protein, UniProt O95644-2 1-716)
chain: MPSTSFPVPSKFPLGPAAAVFGRGETLGPAPRAGGTMKSAEEEHYGYASSNVSPALPLPTAHSTLPAPCHNLQTSTPGIIPPADHPSGYGAALDGGPAGYFLSSGHTRPDGAPALESPRIEITSCLGLYHNNNQFFHDVEVEDVLPSSKRSPSTATLSLPSLEAYRDPSCLSPASSLSSRSCNSEASSYESNYSYPYASPQTSPWQSPCVSPKTTDPEEGFPRGLGACTLLGSPRHSPSTSPRASVTEESWLGARSSRPASPCNKRKYSLNGRQPPYSPHHSPTPSPHGSPRVSVTDDSWLGNTTQYTSSAIVAAINALTTDSSLDLGDGVPVKSRKTTLEQPPSVALKVEPVGEDLGSPPPPADFAPEDYSSFQHIRKGGFCDQYLAVPQHPYQWAKPKPLSPTSYMSPTLPALDWQLPSHSGPYELRIEVQPKSHHRAHYETEGSRGAVKASAGGHPIVQLHGYLENEPLMLQLFIGTADDRLLRPHAFYQVHRITGKTVSTTSHEAILSNTKVLEIPLLPENSMRAVIDCAGILKLRNSDIELRKGEADIGRKNTRVRLVFRVHVPQPSGRTLSLQVASNPIECSQRSAQELPLVEKQSTDSYPVVGGKKMVLSGHNFLQDSKVIFVEKAPDGHHVWEMEAKTDRDLCKPNSLVVEIPPFRNQRITSPVHVSFYVCNGKRKRSQYQRFTYLPANGNAIFLTVSREHERVGCFF
As to B5, the binding entry in assay [3] is “binds”.

B6: C-Venus-tagged NFATc1 (CV-NFATc1) (protein, UniProt O95644-2 1-716)
chain: MPSTSFPVPSKFPLGPAAAVFGRGETLGPAPRAGGTMKSAEEEHYGYASSNVSPALPLPTAHSTLPAPCHNLQTSTPGIIPPADHPSGYGAALDGGPAGYFLSSGHTRPDGAPALESPRIEITSCLGLYHNNNQFFHDVEVEDVLPSSKRSPSTATLSLPSLEAYRDPSCLSPASSLSSRSCNSEASSYESNYSYPYASPQTSPWQSPCVSPKTTDPEEGFPRGLGACTLLGSPRHSPSTSPRASVTEESWLGARSSRPASPCNKRKYSLNGRQPPYSPHHSPTPSPHGSPRVSVTDDSWLGNTTQYTSSAIVAAINALTTDSSLDLGDGVPVKSRKTTLEQPPSVALKVEPVGEDLGSPPPPADFAPEDYSSFQHIRKGGFCDQYLAVPQHPYQWAKPKPLSPTSYMSPTLPALDWQLPSHSGPYELRIEVQPKSHHRAHYETEGSRGAVKASAGGHPIVQLHGYLENEPLMLQLFIGTADDRLLRPHAFYQVHRITGKTVSTTSHEAILSNTKVLEIPLLPENSMRAVIDCAGILKLRNSDIELRKGETDIGRKNTRVRLVFRVHVPQPSGRTLSLQVASNPIECSQRSAQELPLVEKQSTDSYPVVGGKKMVLSGHNFLQDSKVIFVEKAPDGHHVWEMEAKTDRDLCKPNSLVVEIPPFRNQRITSPVHVSFYVCNGKRKRSQYQRFTYLPANGNAIFLTVSREHERVGCFF
On to B6, for which the binding entry in assay [4] is “binds”.

B7: VF-tagged NFATc1 R484A/L485A/T551A (protein, UniProt O95644-2 1-716)
chain: MPSTSFPVPSKFPLGPAAAVFGRGETLGPAPRAGGTMKSAEEEHYGYASSNVSPALPLPTAHSTLPAPCHNLQTSTPGIIPPADHPSGYGAALDGGPAGYFLSSGHTRPDGAPALESPRIEITSCLGLYHNNNQFFHDVEVEDVLPSSKRSPSTATLSLPSLEAYRDPSCLSPASSLSSRSCNSEASSYESNYSYPYASPQTSPWQSPCVSPKTTDPEEGFPRGLGACTLLGSPRHSPSTSPRASVTEESWLGARSSRPASPCNKRKYSLNGRQPPYSPHHSPTPSPHGSPRVSVTDDSWLGNTTQYTSSAIVAAINALTTDSSLDLGDGVPVKSRKTTLEQPPSVALKVEPVGEDLGSPPPPADFAPEDYSSFQHIRKGGFCDQYLAVPQHPYQWAKPKPLSPTSYMSPTLPALDWQLPSHSGPYELRIEVQPKSHHRAHYETEGSRGAVKASAGGHPIVQLHGYLENEPLMLQLFIGTADDAALRPHAFYQVHRITGKTVSTTSHEAILSNTKVLEIPLLPENSMRAVIDCAGILKLRNSDIELRKGEADIGRKNTRVRLVFRVHVPQPSGRTLSLQVASNPIECSQRSAQELPLVEKQSTDSYPVVGGKKMVLSGHNFLQDSKVIFVEKAPDGHHVWEMEAKTDRDLCKPNSLVVEIPPFRNQRITSPVHVSFYVCNGKRKRSQYQRFTYLPANGNAIFLTVSREHERVGCFF
Take B7: the binding result in assay [3] was “binds”.

B8: VF-tagged NFATc1 T1, truncation of AD and RD (1-425 amino acids) (domain or fragment, UniProt O95644-2 1-425)
chain: MPSTSFPVPSKFPLGPAAAVFGRGETLGPAPRAGGTMKSAEEEHYGYASSNVSPALPLPTAHSTLPAPCHNLQTSTPGIIPPADHPSGYGAALDGGPAGYFLSSGHTRPDGAPALESPRIEITSCLGLYHNNNQFFHDVEVEDVLPSSKRSPSTATLSLPSLEAYRDPSCLSPASSLSSRSCNSEASSYESNYSYPYASPQTSPWQSPCVSPKTTDPEEGFPRGLGACTLLGSPRHSPSTSPRASVTEESWLGARSSRPASPCNKRKYSLNGRQPPYSPHHSPTPSPHGSPRVSVTDDSWLGNTTQYTSSAIVAAINALTTDSSLDLGDGVPVKSRKTTLEQPPSVALKVEPVGEDLGSPPPPADFAPEDYSSFQHIRKGGFCDQYLAVPQHPYQWAKPKPLSPTSYMSPTLPALDWQLPSHSGP
On to B8, for which the binding result in assay [3] is “no binding”.

The record behind these values is publication PMC12831459.
